According to PMC12040169 (PLOS Biology, 2025):
The other results are listed elsewhere or left out.

What follows are molecules tested on T1, C. trachomatis L2/434/Bu expressing GFP (CTL2-GFP). Settings: total inclusion area; 28.5 h, 10 µM; inhibitor.
T1 construct: L2/434/Bu GFP intracellular growth in HeLa cells
Parameters: species or system HeLa; C. trachomatis total inclusion area by high-content imaging, normalised to DMSO
How it was run: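 After bulk GFP and resorufin fluorescence reads, cells were fixed, stained with Hoechst and imaged by high-content microscopy. Inclusion area and number (GFP) stood in for chlamydial growth, nuclei count (Hoechst) for host cell viability. MICs were derived as for the bulk readout.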
In the case of `Cc1ccc(-n2c(SCC(=O)Nc3ccccc3C#N)nnc2-c2cc(Br)ccc2O)c(C)c1` [CBK268743], the “% of control remaining” value is reported as 58.2834.
For `O=c1c(-c2nc3ccccc3s2)coc2c(CN3CCCCC3)c(O)ccc12` [CBK262161], the “% of control remaining” value was 94.692.
`COC1C(O)C(CO)OC1n1cc(F)c(=S)[nH]c1=O` (stereo not drawn) [CBK201168] was tested, and the “% of control remaining” value was 124.629.
With `Cc1ccc2c(c1)cc(C(=O)N1CCC(C(=O)NCCc3ccc(Cl)cc3)C1)n2C` (stereo not drawn) [CBK285926] the “% of control remaining” value was 105.092.
For `O=C(C[C@@H]1O[C@H](CNS(=O)(=O)c2ccccc2)[C@@H](O)[C@H]1O)N1CCc2ccccc21` [CBK288916], the “% of control remaining” value was 112.285.
With `CCOc1cc(/C=N/O)c(Br)cc1O` [CBK288359] the “% of control remaining” value was 93.3464.
`Cc1nnc(SCc2cc(=O)[nH]c(N3CCN(C)CC3)n2)s1` [CBK270106] was tested, and the “% of control remaining” value was 100.913.
With `Oc1ccc(-c2cncc(-c3ccc(F)cc3)n2)cc1` [CBK123794] the “% of control remaining” value was 103.788.
In the case of `c1ccc(-c2onc3cc4c(cc23)OCCO4)cc1` [CBK287869], the “% of control remaining” value is reported as 81.8745.
In the case of `CCCc1nnc2sc(C3CCC(=O)N(CC(C)C)C3)nn12` (stereo not drawn) [CBK307207], the “% of control remaining” value is reported as 67.6681.
With `CC(Sc1nc2ccccc2[nH]1)C(=O)O` (stereo not drawn) [CBK263063] the “% of control remaining” value was 86.0572.
In the case of `O=C(Cc1ccccc1F)N1CCC(n2cnc3cccnc32)CC1` [CBK283635], the “% of control remaining” value is reported as 108.823.
With `NS(=O)(=O)c1ccc(NCc2ccccc2OCc2ccccc2F)cc1` [CBK268935] the “% of control remaining” value was 86.3071.
With `COc1ccc(-c2ccc(OC)cc2C(=O)Nc2cccc(-n3cccn3)c2)cc1` [CBK285818] the “% of control remaining” value was 117.418.
In the case of `COCC(=O)Nc1ccc([C@@H](O)[C@H]2COCC(=O)N2C)cc1` [CBK289058], the “% of control remaining” value is reported as 116.058.
With `COC(=O)Nc1ncc(CN2C(=O)c3ccccc3C2=O)s1` [CBK268434] the “% of control remaining” value was 85.4436.
For `CC(=O)Nc1ccc(C(=O)Nc2ccc(S(N)(=O)=O)cc2)cc1` [CBK261600], the “% of control remaining” value was 105.806.
In the case of `CCOC(=O)N/N=C1\CCCCC1CC` (stereo not drawn) [CBK016112], the “% of control remaining” value is reported as 90.3281.
`CC(=O)N1CCC[C@H]2NC(=O)CNC(=O)C3(C/C=C/C[C@H]21)CCN(Cc1cc[nH]n1)CC3` [CBK292164] was tested, and the “% of control remaining” value was 107.235.
With `CCn1cc(C(=O)O)c(=O)c2cnc(N3CCN(C(=S)Nc4ccc5c(c4)OCO5)CC3)nc21` [CBK267930] the “% of control remaining” value was 92.0283.
With `CN1CCN(C)C(COc2nc3cc(Cl)c(Cl)cc3nc2N2CCCC2)C1` (stereo not drawn) [CBK115294] the “% of control remaining” value was 94.5856.
In the case of `COc1ccc(Oc2nccnc2N2CCN(CCOc3ccccc3)CC2)cc1OC` [CBK083061T], the “% of control remaining” value is reported as 97.2551.
With `COc1cc(NC(=O)N2CCC(C(=O)O)CC2)cc(OC)c1OC` [CBK156076] the “% of control remaining” value was 80.0431.
With `CCCOc1ccc(-c2nn(-c3ccccc3)cc2/C=C2\SC(=S)N(CC(=O)O)C2=O)cc1` [CBK264525] the “% of control remaining” value was 107.259.
With `Cc1cc(C(=O)N2CCc3c(sc4ncnc(N)c34)C2)c(C)s1` [CBK304980] the “% of control remaining” value was 46.225.
`COc1ccc(C(C)C)cc1-c1nccnc1N[C@@H](CO)C(C)C` [CBK036711] was tested, and the “% of control remaining” value was 101.511.
In the case of `Cc1ccccc1Cc1cccc(C2CCN(S(=O)(=O)c3cn(C)nc3C)CC2)n1` [CBK286141], the “% of control remaining” value is reported as 128.766.
`C=CCNC(=O)c1ccc(-c2cccc(N(C)C)c2)nc1NCc1cccnc1` [CBK076566] was tested, and the “% of control remaining” value was 130.156.
With `O=C1CC2(CCC3C(C(=O)N4CCCCC4)C32)Oc2ccccc21` (stereo not drawn) [CBK284947] the “% of control remaining” value was 86.547.
For `CN1CCC(OCCCn2ccnc2-c2ccccc2C(=O)O)CC1` [CBK307188], the “% of control remaining” value was 73.8609.
In the case of `Nc1ncc(-c2cc(C(F)(F)F)cc(C(F)(F)F)c2)nc1Nc1ccc2[nH]ccc2c1` [CBK063651], the “% of control remaining” value is reported as 61.1603.
In the case of `COCC1(C(=O)N2CCN(c3ccccc3C#N)CC2)CCC1` [CBK304361], the “% of control remaining” value is reported as 36.3655.
In the case of `CC(=O)Nc1cccc(/C(C)=N/NC(=O)c2ccc(CN3CCOCC3)cc2)c1` [CBK262746], the “% of control remaining” value is reported as 102.553.
With `COc1ccc(C2CC(=O)C(=CNCCCN3CCOCC3)C(=O)C2)cc1` (stereo not drawn) [CBK263647] the “% of control remaining” value was 110.358.
In the case of `Brc1nc2c3c(nc(N4CCOCC4)c2s1)CCCC3` [CBK019604], the “% of control remaining” value is reported as 87.4433.
`O=C(C[n+]1cccc(C(=O)N/N=C/c2ccc(Br)cc2)c1)c1ccccc1` [CBK262063B] was tested, and the “% of control remaining” value was 95.5665.
`CC(=O)c1c(C)c2c(=O)n3c(nc2[nH]c1=O)CCC3` [CBK287872] was tested, and the “% of control remaining” value was 100.32.
In the case of `COc1ccccc1N1CCN(CCC(=O)Nc2ccccc2F)CC1` [CBK264313], the “% of control remaining” value is reported as 98.6858.
`S=c1[nH]nc2ccc(N3CCOCC3)nn12` [CBK008327] was tested, and the “% of control remaining” value was 95.408.
In the case of `CS(=O)(=O)N1CCC2(CC1)NC(=O)N(Cc1ccccc1)C2=O` [CBK287656], the “% of control remaining” value is reported as 92.6318.
With `Cc1c(C(=O)N(C(C)C)C2CC2)nnn1-c1ccc2ncccc2c1` [CBK305518] the “% of control remaining” value was 57.4565.
For `CN(C)S(=O)(=O)c1cccc(-c2cn3cccnc3n2)c1` [CBK267580], the “% of control remaining” value was 79.3558.
For `CC12CN3CC(C)(CN(C1)C3c1cccc([N+](=O)[O-])c1)C2=O` (stereo not drawn) [CBK009030], the “% of control remaining” value was 99.0638.
For `OC[C@H]1O[C@@H](n2cnc3cncnc32)C[C@H]1O` [CBK201243], the “% of control remaining” value was 122.876.
For `CC(C)(C)C1CCC(OC(=O)CCC(=O)O)CC1` (stereo not drawn) [CBK026882], the “% of control remaining” value was 94.493.
`COc1ccc(-c2nn(CCC#N)cc2C(=O)N2CCCCC2)cc1` [CBK305834] was tested, and the “% of control remaining” value was 75.2776.
With `CC(CN(C)C)C(=O)c1ccsc1` (stereo not drawn) [CBK025906] the “% of control remaining” value was 50.6682.
With `O=C(NC1CCc2ccccc21)N1CCN(CCc2ccccc2)CC1` (stereo not drawn) [CBK158936] the “% of control remaining” value was 102.212.
In the case of `COCCNc1nc(-c2cc(OC)c(OC)c(OC)c2)cnc1N` [CBK063559], the “% of control remaining” value is reported as 104.148.
For `CCCn1cnc2c1CN(C(C)=O)[C@H](C(=O)OC)C2` [CBK288995], the “% of control remaining” value was 77.4013.
`CCc1ccc(C2CC(=O)c3c(ccc4ccccc34)N2)cc1` (stereo not drawn) [CBK098787] was tested, and the “% of control remaining” value was 80.8532.
